# Assay results taken from PubChem BioAssay AID903 (National Center for Advancing Translational Sciences (NCATS), 2007).
# Out of some 55,000 compounds screened, about 340 (0.62%) were called active. This list was built around the results that the source calls inconclusive (neither active nor inactive); the mix of calls is not that of the screen. The call rests on the fitted dose curve; in most records, active means well fitted cell-killing curve with a large enough effect; inconclusive means small, poorly fitted or top-dose-only effect; inactive means no such curve, though single readings can be large or run the other way. Where the call is inconclusive, the potency comes from a doubtful curve fit.
# Assay: qHTS Screen for Compounds that Selectively Target Cancer Cells with p53 Mutations: Cytotoxicity of p53 Null Cells at the Permissive Temperature; further: nearly all actives have a fitted effect of over 55% in size;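 on activity change, negative = cytotoxicity: 0% = DMSO only and -100% = full killing by 100 µM tamoxifen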
# Settings: H1299-neo p53 null cells, ATP luminescence, 24 h, 32C; series mostly up to 46.1 µM; activity change, negative = cytotoxicity: at the top concentration
# Summary of the method: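 Cytotoxicity: H1299-neo (no p53), 32C, 24 h treatment. Concentrations up to 46 uM. Readout cellular ATP, luminescence. Normalization to DMSO basal and tamoxifen 100 uM maximal kill.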
# Tags describe the fitted curve by direction and shape.
Structure (SMILES),Potency,"activity change, negative = cytotoxicity"
COc1ccc(CN(C(=O)CSc2nnc(-c3c[nH]c4ccccc34)o2)c2ccc(F)cc2)cc1OC,"inconclusive: 35.5 µM [cytotoxic, single point]",
CC(C)CCNC(=O)CN1C(=O)c2cccnc2Oc2ccccc21,"inconclusive: 5.62 µM [cytotoxic, single point]",
CCCCNc1nc2c(S(=O)(=O)c3ccc(Cl)cc3)nnn2c2ccsc12,,inactive: 0.324%
Cc1ccc(NC(=O)Nc2ccc3nc(N4CCN(C)CC4)cc(C)c3c2)cc1C,"inconclusive: 31.6 µM [cytotoxic, single point]",
Cc1ccc2nc(-c3sc4nc(C)cc(C)c4c3N)[nH]c2c1,"inconclusive: 11.2 µM [cytotoxic, single point]",
COc1cc(OC)cc(C(=O)Nc2nc(-c3nnn(-c4ccc(F)c(Cl)c4)c3C)ns2)c1,"inconclusive: 12.6 µM [cytotoxic, single point]",
Cc1cc(C)c2c(NC(=O)c3ccccc3Cl)c(C(=O)NCc3ccc(Cl)cc3)sc2n1,"inconclusive: 25.1 µM [cytotoxic, single point]",
Nc1ccc2nc(-c3ccc(N)c(Cl)c3)[nH]c2c1,"inconclusive: 15.8 µM [cytotoxic, partial curve]",
FC(F)(F)c1cccc(Nc2nc3nonc3nc2Nc2ccc(Cl)cc2)c1,"inconclusive: 31.6 µM [cytotoxic, single point]",
CC(C)Oc1ccc(C(=O)Nc2nnc3n2CCS3)cc1,"inconclusive: 7.94 µM [cytotoxic, partial curve]",
O=S(=O)(c1cccc(Cl)c1)n1c(/C=C/c2ccccc2Cl)nc2ccccc21,active: 1.26 µM,
Cc1nc2cc(-c3cccc(F)c3)nn2c(C)c1CCC(=O)Nc1ccccc1C(N)=O,,inactive: -2.1%
Cc1ccc(N2C(=O)[C@@H]3CSC(c4ccc(Cl)cc4)N3C2=O)cc1 (some centres not stated),"inconclusive: 7.08 µM [cytotoxic, single point]",
Cc1ccccc1Nc1c(-c2ccc(N3CCOCC3)cc2)nc2cccc(C)n12,"inconclusive: 2.82 µM [cytotoxic, full curve, poor fit]",
COc1ccc(C(=O)NC(c2ccccc2Cl)c2cc(Cl)c3cccnc3c2O)cc1 (configuration not stated),"inconclusive: 1 µM [cytotoxic, full curve]",
Cc1ccc(S(=O)(=O)Nc2cc(Cl)c3oc4c(c3c2)CCCC4)cc1,"inconclusive: 35.5 µM [cytotoxic, single point]",
Cc1cc(C)cc(NC(=O)c2oc3ccc4c(c3c2C)C(=O)CC(C)(C)O4)c1,"inconclusive: 2.51 µM [cytotoxic, full curve]",
COc1ccc(NC(=O)CC2C(=O)N(c3ccccc3)C(=O)N2C2CCCCC2)cc1 (configuration not stated),"inconclusive: 3.16 µM [cytotoxic, single point]",
COc1ccc(NC(=O)C2CCN(C(=O)N3CCOc4ccccc43)CC2)cc1,"inconclusive: 31.6 µM [cytotoxic, single point]",
Cc1ccc(NC(=O)Nc2cccc(C)n2)cc1,"inconclusive: 12.6 µM [cytotoxic, partial curve]",
Cc1ccccc1NS(=O)(=O)c1ccc2[nH]cc(C(=O)NC3CCCCC3)c(=O)c2c1,"inconclusive: 12.6 µM [cytotoxic, partial curve]",
Cc1ccc(CSc2nc3ccsc3c(=O)n2CCC(C)C)cc1,,inactive: -2.95%
Cc1ccc(-c2nc(-c3cc4cccc(OCc5cccc(F)c5)c4oc3=O)no2)cc1,,inactive: 2.6%

Structure (SMILES),Potency,"activity change, negative = cytotoxicity"
Cc1nnn(-c2nonc2N)c1C(=O)N/N=C/c1ccccc1O,"inconclusive: 2.82 µM [cytotoxic, full curve]",
CC(=O)c1sc(NC(=O)C2COc3ccccc3O2)nc1C (configuration not stated),"inconclusive: 10 µM [cytotoxic, partial curve, poor fit]",
COc1cccc(-c2[nH]c3c(c2-c2c(-n4cccc4)n(C)c(=O)[nH]c2=O)c(=O)[nH]c(=O)n3C)c1,,inactive: -8.81%
COc1ccc(-c2nc3c(C#N)c[nH]n3c2NC2CCCC2)cc1,,inactive: -7.28%
COc1ccc(CC(=O)Nc2cc(-c3nc4cccnc4s3)ccc2C)cc1,"inconclusive: 12.6 µM [cytotoxic, partial curve]",
O=C(CCC1CCCC1)Nc1ccc(OCC(=O)N2CCOCC2)cc1,active: 14.1 µM,
Cn1nc(-c2ccc(OCC(=O)Nc3ccc(Cl)cc3)cc2)c2ccccc2c1=O,"inconclusive: 25.1 µM [cytotoxic, single point]",
Cc1ccc(CN2C(=O)C(=O)c3cc(Br)cc(C)c32)cc1,"inconclusive: 25.1 µM [cytotoxic, single point]",
COc1ccc(-c2nn(-c3ccc(F)cc3)c3c2cnc2cc4c(cc23)OCO4)cc1,,inactive: -4.28%
COc1ccccc1CNc1ccc(-c2nc(-c3ccccc3C)no2)cc1[N+](=O)[O-],"inconclusive: 20 µM [cytotoxic, partial curve]",
CC(=O)c1cccc(NC(=O)Cn2c(=O)oc3cc(S(=O)(=O)NCc4ccccc4)ccc32)c1,,inactive: -1.8%
COc1ccc(CCNC(=O)c2c[nH]n3c(=O)c(Cc4ccccc4Cl)c(C)nc23)cc1OC,"inconclusive: 12.6 µM [cytotoxic, single point]",
COc1ccccc1Nc1c2c(nc3ccc(NC(=O)/C=C/c4cc(OC)c(OC)c(OC)c4)cc13)CCCC2,active: 15.8 µM,
Cc1cccc(N2C(=O)C(CC(=O)Nc3ccccc3)N(C3CCCCC3)C2=O)c1 (configuration not stated),"inconclusive: 3.55 µM [cytotoxic, single point]",
Cn1c(-c2cccc(Br)c2)cnc1NCc1cccc(F)c1,,inactive: -23.5%
COC(=O)c1ccc(-c2nc3cc(N)ccc3o2)cc1,"inconclusive: 2 µM [cytotoxic, full curve, poor fit]",
Cc1nc(-c2ccc(F)cc2)sc1CCNC(=O)c1ccccc1C(F)(F)F,"inconclusive: 0.0708 µM [cytotoxic, partial curve, poor fit]",
COc1ccc(CNC(=O)c2cc(-c3ccc(OC)c(OC)c3)nc3n[nH]c(-c4ccc(C)cc4)c23)cc1,,inactive: -12%
O=C(CSc1ccc2nc(-c3ccccc3)cn2n1)Nc1ccccc1,"inconclusive: 3.16 µM [cytotoxic, full curve, poor fit]",
CC1=C(C(=O)Nc2cccc(F)c2)C2(CCCCC2)OC1=O,"inconclusive: 0.01 µM [cytotoxic, full curve, poor fit]",
N#Cc1c(-n2ncnc2-c2ccccc2Cl)sc2c1CCCCC2,,inactive: 0.879%
CCOC(=O)c1ccc(N2C(=O)c3n[nH]c(-c4cccs4)c3C2c2cccc(O)c2)cc1 (configuration not stated),active: 20 µM,
CC(C)CC(=O)Nc1cccc(-c2cn3cccnc3n2)c1,"inconclusive: 12.6 µM [cytotoxic, single point]",

Structure (SMILES),Potency,"activity change, negative = cytotoxicity"
COc1cccc(NC(=O)c2oc3ccccc3c2NC(=O)c2ccc(OC(C)C)cc2)c1,active: 15.8 µM,
Cc1ccc(CSc2nc3cccnc3n2Cc2ccc(C(=O)NCc3cccs3)cc2)cc1,"inconclusive: 2.51 µM [cytotoxic, full curve]",
COc1ccc(CNC(=O)c2cc3oc4ccccc4c3n2C)cc1OC,"inconclusive: 17.8 µM [cytotoxic, partial curve]",
CC(C)Oc1ccc(CNC(=O)c2cccc(NC(=O)c3nsc4ccccc34)c2)cc1,"inconclusive: 15.8 µM [cytotoxic, single point]",
COc1ccc(Nc2c3c(nc4ccc(NC(=O)c5cc(Cl)ccc5OC)cc24)CCCC3)cc1OC,active: 6.31 µM,
COc1ccc(N2CCN(c3oc(/C=C/c4ccccc4OC)nc3C#N)CC2)cc1,,inactive: -4.03%
CCOc1ccc(-c2cc3c(=O)n(CC(=O)NCc4ccccc4)ccn3n2)cc1,"inconclusive: 3.16 µM [cytotoxic, full curve, poor fit]",
COc1ccccc1CNc1ncnc2c1nc1n2CCCC1,"inconclusive: 4.47 µM [cytotoxic, single point]",
CC1CCN(C(=O)c2cc(-c3ccc(Cl)c(Cl)c3)on2)CC1,,inactive: 4.29%
COc1ccc(OCC(=O)Nc2cc(-c3nc4ccccc4o3)ccc2Cl)cc1,,inactive: -8.91%
CCOc1ccc(C(=O)Nc2ccc(C(=O)OCc3cc(=O)n4c(C)csc4n3)cc2)cc1,"inconclusive: 25.1 µM [cytotoxic, single point]",
COc1ccc(-c2nc3ccccc3s2)cc1NC(=O)c1cccc(F)c1,"inconclusive: 0.0158 µM [cytotoxic, full curve, poor fit]",
O=C(Nc1nc2ccccc2n1CCOc1ccccc1Cl)c1ccccc1,,inactive: -12.2%
Cc1ccc2ncc(C(=O)c3ccc(C)c(C)c3)c(S(=O)(=O)c3ccccc3)c2c1,,inactive: 29.4%
CC(C)Oc1ccc(/C=C(\NC(=O)/C=C/c2ccco2)C(=O)NCCc2nc3ccccc3[nH]2)cc1,"inconclusive: 6.31 µM [cytotoxic, single point]",
CCN(C(=O)c1cc(S(=O)(=O)N2CCc3ccccc32)cn1C)c1cccc(C)c1,,inactive: 46.4%
CCOC(=O)c1ccc(NS(=O)(=O)c2cc(Br)cc3c2N(C(C)=O)C(C)C3)cc1 (configuration not stated),,inactive: 8.55%
Cc1cccc(-n2ccnc2SCC(=O)Nc2nc3ccccc3s2)c1,,inactive: -4.22%
O=C(Nc1c(C(=O)Nc2cccc(F)c2)oc2ccccc12)c1cc2ccccc2o1,"inconclusive: 10 µM [cytotoxic, partial curve]",
Cc1ccc(-c2nc3ccc(Cl)cn3c2Nc2ccc3c(c2)OCCO3)s1,"inconclusive: 12.6 µM [cytotoxic, partial curve, poor fit]",
COc1ccc(-c2cc(C(F)(F)F)n3nc(C(=O)Nc4cccc(C(F)(F)F)c4)c(Br)c3n2)cc1,,inactive: 3.3%
